# Measurements as given in the supplement of paper PMC8728848.
# The list shows a part of the results.
# Assays:
# Experiment in all cases: glycan array binding signal (z-score within array); higher = stronger binding
# Conditions in all cases: glycan notation: IUPAC condensed, linker removed
# [1] = target: Fuc(a1-2)Gal(b1-4)GlcNAc(b1-3)Gal(b1-4)GlcNAc(b1-3)Gal(b1-4)GlcNAc
# Outline: (§1)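 Glycan array data were curated from 3228 arrays in the Consortium for Functional Glycomics database and kept only where the protein sequence was available. Glycan names were converted to IUPAC-condensed notation, and columns mapping to the same glycan were averaged. The binding signal is a within-array Z-score, averaged across arrays of the same protein sequence at different concentrations or buffers and across linkers. Negative Z-scores can be read as non-binding.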
# [2] = target: Fuc(a1-2)Gal(b1-4)GlcNAc(b1-3)GalNAc
# Outline: as §1
# [3] = target: Fuc(a1-2)Gal(b1-4)GlcNAc(b1-3)[Fuc(a1-2)Gal(b1-4)GlcNAc(b1-6)]GalNAc
# Outline: as §1
# [4] = target: Fuc(a1-2)Gal(b1-4)GlcNAc(b1-3)[Fuc(a1-3)[Gal(b1-4)]GlcNAc(b1-6)]Gal(b1-4)Glc
# Outline: as §1
# [5] = target: Fuc(a1-2)Gal(b1-4)GlcNAc(b1-6)GalNAc
# Outline: as §1
# [6] = target: Fuc(a1-2)Gal(b1-4)GlcNAc6S
# Outline: as §1
# [7] = target: Fuc(a1-2)Gal(b1-4)[Fuc(a1-3)]GlcNAc
# Outline: as §1
# [8] = target: Fuc(a1-2)Gal(b1-4)[Fuc(a1-3)]GlcNAc(b1-2)Man(a1-3)[Fuc(a1-2)Gal(b1-4)[Fuc(a1-3)]GlcNAc(b1-2)Man(a1-6)]Man(b1-4)GlcNAc(b1-4)[Fuc(a1-6)]GlcNAc
# Outline: as §1
# [9] = target: Fuc(a1-2)Gal(b1-4)[Fuc(a1-3)]GlcNAc(b1-2)[Fuc(a1-2)Gal(b1-4)[Fuc(a1-3)]GlcNAc(b1-4)]Man(a1-3)[Fuc(a1-2)Gal(b1-4)[Fuc(a1-3)]GlcNAc(b1-2)Man(a1-6)]Man(b1-4)GlcNAc(b1-4)GlcNAc
# Outline: as §1
# [10] = target: Fuc(a1-2)Gal(b1-4)[Fuc(a1-3)]GlcNAc(b1-3)Gal(b1-4)[Fuc(a1-3)]GlcNAc
# Outline: as §1
# [11] = target: Fuc(a1-2)Gal(b1-4)[Fuc(a1-3)]GlcNAc(b1-3)Gal(b1-4)[Fuc(a1-3)]GlcNAc(b1-3)Gal(b1-4)[Fuc(a1-3)]GlcNAc
# Outline: as §1
# [12] = target: Fuc(a1-2)Gal(b1-4)[Fuc(a1-3)]GlcNAc(b1-3)GalNAc
# Outline: as §1
# [13] = target: Fuc(a1-2)Gal(b1-4)[Fuc(a1-3)]GlcNAc(b1-3)[Neu5Ac(a2-6)Gal(b1-4)GlcNAc(b1-6)]Gal(b1-4)Glc
# Outline: as §1
# [14] = target: Fuc(a1-2)Gal3S(b1-4)GlcNAc
# Outline: as §1
# [15] = target: Fuc(a1-2)Gal6S(b1-3)GlcNAc
# Outline: as §1
# [16] = target: Fuc(a1-2)Gal6S(b1-3)GlcNAc6S
# Outline: as §1
# Fuc(a1-2)Gal6S(b1-4)Glc = target: Fuc(a1-2)Gal6S(b1-4)Glc
# Outline: as §1
# [17] = target: Fuc(a1-2)Gal6S(b1-4)Glc6S
# Outline: as §1
# Fuc(a1-2)[Gal(a1-3)]Gal = target: Fuc(a1-2)[Gal(a1-3)]Gal
# Outline: as §1
# [18] = target: Fuc(a1-2)[Gal(a1-3)]Gal(b1-3)GalNAc
# Outline: as §1
# [19] = target: Fuc(a1-2)[Gal(a1-3)]Gal(b1-3)GalNAc(b1-3)Gal(a1-4)Gal(b1-4)Glc
# Outline: as §1
# [20] = target: Fuc(a1-2)[Gal(a1-3)]Gal(b1-3)GlcNAc
# Outline: as §1
# [21] = target: Fuc(a1-2)[Gal(a1-3)]Gal(b1-3)GlcNAc(b1-2)Man(a1-3)[Fuc(a1-2)[Gal(a1-3)]Gal(b1-3)GlcNAc(b1-2)Man(a1-6)]Man(b1-4)GlcNAc(b1-4)GlcNAc
# Outline: as §1
# [22] = target: Fuc(a1-2)[Gal(a1-3)]Gal(b1-3)GlcNAc(b1-2)Man(a1-3)[Fuc(a1-2)[Gal(a1-3)]Gal(b1-3)GlcNAc(b1-2)Man(a1-6)]Man(b1-4)GlcNAc(b1-4)[Fuc(a1-6)]GlcNAc
# Outline: as §1
# [23] = target: Fuc(a1-2)[Gal(a1-3)]Gal(b1-3)GlcNAc(b1-3)GalNAc
# Outline: as §1
# [24] = target: Fuc(a1-2)[Gal(a1-3)]Gal(b1-3)GlcNAc(b1-6)GalNAc
# Outline: as §1
# [25] = target: Fuc(a1-2)[Gal(a1-3)]Gal(b1-4)Glc
# Outline: as §1
# [26] = target: Fuc(a1-2)[Gal(a1-3)]Gal(b1-4)GlcNAc
# Outline: as §1
# [27] = target: Fuc(a1-2)[Gal(a1-3)]Gal(b1-4)GlcNAc(b1-2)Man
# Outline: as §1
# [28] = target: Fuc(a1-2)[Gal(a1-3)]Gal(b1-4)GlcNAc(b1-2)Man(a1-3)[Fuc(a1-2)[Gal(a1-3)]Gal(b1-4)GlcNAc(b1-2)Man(a1-6)]Man(b1-4)GlcNAc(b1-4)GlcNAc
# Outline: as §1
binder,measurement,setting,value
Cohesin-hDC-ASGPR (Homo sapiens) (protein) LDDLDAVRIKVDTVNAKPGDTVRIPVRFSGIPSKGIANCDFVYSYDPNVLEIIEIEPGDIIVDPNPDKSFDTAVYPDRKIIVFLFAEDSGTGAYAITKDGVFATIVAKVKEGAPNGLSVIKFVEVGGFANNDLVEQKTQFFDGGANVGDTTEPATPTTPVTTPTTTDDLDAASQNSKFQRDLVTLRTDFSNFTSNTVAEIQALTSQGSSLEETIASLKAEVEGFKQERQAGVSELQEHTTQKAHLGHCPHCPSVCVPVHSEMLLRVQQLVQDLKKLTCQVATLNNNASTEGTCCPVNWVEHQDSCYWFSHSGMSWAEAEKYCQLKNAHLVVINSREEQNFVQKYLGSAYTWMGLSDPEGAWKWVDGTDYATGFQNWKPGQPDDWQGHGLGGGEDCAHFHPDGRWNDDVCQRPYHWVCEAGLGQTSQESHHHHHH,glycan array binding signal (z-score),[1],-0.451
same,glycan array binding signal (z-score),[2],-0.29
same,glycan array binding signal (z-score),[3],0.606
same,glycan array binding signal (z-score),[4],-0.514
same,glycan array binding signal (z-score),[5],2.81
same,glycan array binding signal (z-score),[6],-0.454
same,glycan array binding signal (z-score),[7],-0.381
same,glycan array binding signal (z-score),[8],0.141
same,glycan array binding signal (z-score),[9],-0.025
same,glycan array binding signal (z-score),[10],-0.499
same,glycan array binding signal (z-score),[11],-0.411
same,glycan array binding signal (z-score),[12],-0.427
same,glycan array binding signal (z-score),[13],-0.505
same,glycan array binding signal (z-score),[14],-0.377
same,glycan array binding signal (z-score),[15],-0.246
same,glycan array binding signal (z-score),[16],1.48
same,glycan array binding signal (z-score),Fuc(a1-2)Gal6S(b1-4)Glc,-0.515
same,glycan array binding signal (z-score),[17],-0.344
same,glycan array binding signal (z-score),Fuc(a1-2)[Gal(a1-3)]Gal,-0.484
same,glycan array binding signal (z-score),[18],-0.494
same,glycan array binding signal (z-score),[19],-0.514
same,glycan array binding signal (z-score),[20],1.09
same,glycan array binding signal (z-score),[21],-0.343
same,glycan array binding signal (z-score),[22],-0.462
same,glycan array binding signal (z-score),[23],-0.407
same,glycan array binding signal (z-score),[24],2.85
same,glycan array binding signal (z-score),[25],-0.023
same,glycan array binding signal (z-score),[26],-0.444
same,glycan array binding signal (z-score),[27],-0.185
same,glycan array binding signal (z-score),[28],-0.484
